This is an account of results in doi:10.1101/2021.10.31.466654 (bioRxiv, 2021).

For orientation: Kd means the concentration at which binding is half-saturated. A higher Kd goes with a looser complex.

Holding throughout (assay): MST
Experiment [1] addresses T1, His-tagged CRT (UniProt P27797 18-417).
T1 sequence: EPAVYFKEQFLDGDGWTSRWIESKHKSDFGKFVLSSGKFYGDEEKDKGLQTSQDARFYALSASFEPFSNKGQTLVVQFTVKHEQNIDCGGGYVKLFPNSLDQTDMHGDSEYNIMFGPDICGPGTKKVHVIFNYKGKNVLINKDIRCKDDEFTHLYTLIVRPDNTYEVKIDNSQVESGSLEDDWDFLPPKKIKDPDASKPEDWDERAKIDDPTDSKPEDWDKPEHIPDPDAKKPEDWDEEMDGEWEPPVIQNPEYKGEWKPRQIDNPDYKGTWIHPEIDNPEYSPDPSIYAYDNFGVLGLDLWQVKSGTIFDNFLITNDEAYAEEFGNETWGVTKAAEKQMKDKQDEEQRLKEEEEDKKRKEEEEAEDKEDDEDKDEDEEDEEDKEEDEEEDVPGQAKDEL

Experiment [2] concerns the target human CD4-His tag (human, UniProt P01730).
The target in experiment [3] is T2, full-length CRT fused at the C-terminus to the Fc domain of human Ig (human, UniProt P27797 18-417).
T2 sequence: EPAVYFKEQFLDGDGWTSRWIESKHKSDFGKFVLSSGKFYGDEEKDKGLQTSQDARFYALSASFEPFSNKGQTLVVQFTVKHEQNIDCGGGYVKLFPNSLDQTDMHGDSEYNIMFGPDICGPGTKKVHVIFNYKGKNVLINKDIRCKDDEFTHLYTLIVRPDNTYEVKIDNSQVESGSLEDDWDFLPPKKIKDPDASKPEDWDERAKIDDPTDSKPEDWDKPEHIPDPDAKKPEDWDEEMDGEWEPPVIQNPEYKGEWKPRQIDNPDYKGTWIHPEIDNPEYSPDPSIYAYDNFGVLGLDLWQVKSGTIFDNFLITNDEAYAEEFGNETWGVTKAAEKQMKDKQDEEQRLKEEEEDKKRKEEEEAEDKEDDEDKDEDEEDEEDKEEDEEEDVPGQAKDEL

B1: Alexa647-labeled NKp46-Fc (Fc fusion)
chain: QQQTLPKPFIWAEPHFMVPKEKQVTICCQGNYGAVEYQLHFEGSLFAVDRPKPPERINKVQFYIPDMNSRMAGQYSCIYRVGELWSEPSNLLDLVVTEMYDTPTLSVHPGPEVISGEKVTFYCRLDTATSMFLLLKEGRSSHVQRGYGKVQAEFPLGPVTTAHRGTYRCFGSYNNHAWSFPSEPVKLLVTGDIENTSLAPEDPTFPADTWGTYLLTTETGLQKDHALWDHTAQNLLR
modifications: Alexa647 label
On to B1, for which, in experiment [1], the Kd was found to be 12.3 ± 2.4 µM. Further, in experiment [2], the binding result was “binds”.

B2: Myc-tagged extracellular domain of NKp46 (domain or fragment)
chain: QQQTLPKPFIWAEPHFMVPKEKQVTICCQGNYGAVEYQLHFEGSLFAVDRPKPPERINKVQFYIPDMNSRMAGQYSCIYRVGELWSEPSNLLDLVVTEMYDTPTLSVHPGPEVISGEKVTFYCRLDTATSMFLLLKEGRSSHVQRGYGKVQAEFPLGPVTTAHRGTYRCFGSYNNHAWSFPSEPVKLLVTGDIENTSLAPEDPTFPADTWGTYLLTTETGLQKDHALWDHTAQNLLR
modifications: Alexa647 label (in the MST only)
B2 registered a Kd in experiment [3] of 28.7 ± 8.3 µM.
